Some of the results follow.
These sequences were tested on T1, Caupolican (Caup) homeodomain DNA-binding domain (assay: PBM E-score (8-mer, recovered from the published 9-mer minima) (E-score (dimensionless, -0.5 to 0.5)); Drosophila protein; higher = stronger relative binding preference, active = 0.31 or more).
T1 sequence: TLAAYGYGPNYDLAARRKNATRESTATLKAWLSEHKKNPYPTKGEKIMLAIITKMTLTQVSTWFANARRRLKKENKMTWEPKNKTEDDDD
Procedure, shortened: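 Caup's homeodomain DNA-binding domain (residues 214-303) was produced by in vitro transcription and translation and applied at 100 nM to custom-designed protein binding microarrays. Each value is an enrichment score giving relative binding preference for a short DNA word; higher means stronger. Published 9-mer scores were the minimum of their two constituent 8-mer scores, and the 8-mer values were recovered from those minima. A cutoff of 0.31 marks candidate binding sequences.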

Row | Sequence | PBM E-score
1 | ATAGTTCC | inactive: -0.029
2 | GCCGGTAA | inactive: -0.0522
3 | CATCTCGA | inactive: 0.08
4 | CCGGCCTC | inactive: -0.317
5 | ACCTGCGA | inactive: 0.0067
6 | CCTTCTGC | inactive: -0.215
7 | TAGCTCGA | inactive: -0.0721
8 | AATTTGTA | inactive: 0.199
9 | CTGATGGC | inactive: -0.0471
10 | GTATTCTA | inactive: 0.185
11 | ATTGTTAG | inactive: 0.182
12 | AGGAAACA | inactive: 0.221
13 | AGGATAAA | inactive: 0.0626
14 | AATTCGCG | inactive: -0.00488
15 | ACCAACGC | inactive: 0.0138
16 | ACAACATA | active: 0.411
17 | AATCAGCA | inactive: 0.138
18 | GACGACCA | inactive: -0.0136
19 | CTATTATC | inactive: 0.0447
20 | CCTGCCCC | inactive: -0.223
21 | CCACTTAG | inactive: -0.0102
22 | AACGCTCA | inactive: 0.0248
23 | GACTCAAA | inactive: 0.0565

Row | Sequence | PBM E-score
24 | CTCTAAGA | inactive: -0.0219
25 | CAGCGTCC | inactive: -0.0584
26 | GATGAGTA | inactive: 0.156
27 | CAATCTGC | inactive: 0.0136
28 | ATTCCGGC | inactive: -0.165
29 | CAAACACC | inactive: 0.126
30 | ACAGCTTC | inactive: -0.0081
31 | GTCTTACA | inactive: 0.272
32 | GTAGGGAA | inactive: -0.00493
33 | GTGGCTGA | inactive: -0.183
34 | GTCTCAAA | inactive: 0.0277
35 | GATTCACA | inactive: 0.104
36 | AAAACCTG | inactive: 0.0857
37 | ATAAGTGC | inactive: -0.00959
38 | GAATCTTA | inactive: -0.0746
39 | CAAAACCA | ≥ 0.102
40 | CTCAAAAC | inactive: 0.0365
41 | CGTCCTGA | inactive: -0.0533
42 | CCCTCGTC | inactive: -0.0345
43 | CAAACCTC | inactive: -0.123
44 | CAGTTTAG | inactive: -0.0111
45 | CGGGATGA | inactive: -0.0807
46 | CAGTTCTA | inactive: 0.0212

Row | Sequence | PBM E-score
47 | CTCTACAG | inactive: 0.0625
48 | GTTCACGA | inactive: 0.133
49 | AAGATTCT | inactive: -0.0338
50 | GGATGTAC | inactive: 0.305
51 | AAACGCGG | inactive: -0.0824
52 | ATAGCTAA | inactive: 0.0138
53 | ATGGCTAA | inactive: 0.0375
54 | CGGACGTA | inactive: -0.108
55 | AATTAGGT | inactive: 0.119
56 | CCGCCGAC | inactive: -0.0764
57 | GCAAATGC | inactive: -0.0659
58 | ATCGAATC | inactive: 0.017
59 | ACTAGGAA | inactive: 0.103
60 | ATCTCCCG | inactive: -0.156
61 | CGTTAGTC | inactive: -0.0263
62 | ATTAAGCC | inactive: -0.0864
63 | CTCTGAAA | inactive: -0.0119
64 | AGCGACCA | inactive: -0.01
65 | GAGCAGTA | inactive: 0.029
66 | CCGCCCGG | inactive: -0.283
67 | CATCTATA | inactive: 0.0985
68 | AATTATGC | inactive: 0.0678
69 | GCCTCAGC | inactive: -0.198

Row | Sequence | PBM E-score
70 | AACGGTAC | inactive: 0.116
71 | AGCCAGCA | inactive: -0.136
72 | TGAGTCAA | inactive: 0.0775
73 | CTACTTTA | inactive: 0.0405
74 | CTCGTGTC | inactive: 0.26
75 | GCATTCGC | inactive: -0.112
76 | AATGATCA | inactive: 0.0957
77 | ACGCCCTC | inactive: -0.116
78 | ATCGGGGG | inactive: -0.264
79 | CGAAGGTC | inactive: -0.156
80 | ATTGGCTC | inactive: -0.0325
81 | CGTTGCGC | inactive: -0.201
82 | GACAAAAA | inactive: 0.0647
83 | GAATACAA | inactive: 0.299
84 | GCGAAAGA | inactive: -0.063
85 | AGCGAAAT | inactive: -0.0402
86 | CATTCCCG | inactive: -0.0527
87 | ATTCACTC | inactive: 0.0438
88 | AAAACCAA | inactive: 0.0331
89 | ACTGTTCT | inactive: 0.125
90 | CCTACGTC | inactive: -0.0962
91 | ATGAATTA | inactive: 0.0989
92 | ATCAGTCG | ≥ 0.114

Row | Sequence | PBM E-score
93 | CATTAACC | inactive: 0.115
94 | AAAGGCCG | inactive: -0.194
95 | GTGTCAAA | inactive: 0.294
96 | ACGAGACA | inactive: 0.155
97 | ATCTATGG | inactive: -0.111
98 | AATGGGTG | inactive: -0.014
99 | ATACTTGG | inactive: -0.0236
100 | GGGGAGTA | inactive: -0.163
101 | GTATACAA | active: 0.318
102 | GCGCATCC | inactive: -0.151
103 | AAGAGAGA | inactive: -0.0648
104 | GCCGGTAC | inactive: 0.0223
105 | ATTTCAAG | inactive: 0.138
106 | GGCAGTAC | inactive: 0.0248
107 | CCATTGGG | inactive: -0.154
108 | GTACGGGA | inactive: -0.00659
109 | AATCTCAC | inactive: 0.0114
110 | ACATGTCC | active: 0.438
111 | CAGTACAA | inactive: 0.304
112 | AAAAGCTT | inactive: -0.00649

Reference: the supplement of paper PMC3724861
